Measured values as given in the RNAGym collection of RNA variant scans (doi:10.7554/elife.90254).
Read counts are not given, so values of variants with three or more changes are uncertain.

B1: OR4K15 (parent)
chain: GUUAACGGUCAUAGGCCAUGGAAACUAGGAGCACCAUUUCGCUGCCAGUGAAGAAAUGAACAAAGAAAAUCUGGGCCAGGCAGGCAUCAAAAGAAAUAGUCUUGCGCUCAACCAGAAAGUCUGUAAUCAUUUUAAGGGUA

Variants of: B1
Assay: self-cleavage, relative activity (ratio to wild type); higher = more cleavage; in vitro, sequencing; the parent is a self-cleaving ribozyme

| Variant | self-cleavage |
| --- | --- |
| U37C A56G U72C | 0.25 |
| U12C A59G C101U U130A | 0.32 |
| A24G A64U A95U U102C | 1.85 |
| C34A A60G A135G | 1.56 |
| A62G A86U U102C A111G | 0.01 |
| A13U U72G A118G U130C | 0.09 |
| A66G A89U U139A | 2.27 |
| U43C U132C A140U | 1.02 |
| A5C A13G A78U A110G A118U | 0.07 |
| A56G A64U A91G | 0.61 |
| U108C A117G U139C | 0.01 |
| U2C A47U A91C | 1.31 |
| U2C U72A C113A | 0.04 |
| G48C A51G A90G U122C A126G U131A | 0.13 |
| A62G A96G A110C | 0.21 |
| U12C A118G U127C A140G | 0.13 |
| C16U A30G U108C | 0.05 |
| A62G C76U A117G U131C | 0.07 |
| U57C A64G A95U U122A | 1.66 |
| U12C C81U A98U U122A U130C | 0.17 |
| U9A U49C A66G A95G | 1.8 |
| A22U A23G U133C | 2.27 |
| A51G A62G A90G | 0.64 |
| U49C A66G A117G U131C | 0.93 |

| Variant | self-cleavage |
| --- | --- |
| A18G A33G U87A | 1.45 |
| A51G A62G U108C | 0.02 |
| U19C A51G A78G A96G | 0.35 |
| A60G U100C U103C | 1.92 |
| U19C U39C A51G U102C A111G | 0 |
| U3C A68C G74A | 0.31 |
| U9C A36G A56G A67U G106A U130C | 0.03 |
| U12C A78G A89G A92G A117U | 0.2 |
| A4G U9G U57C | 1.4 |
| U43C U131C A140G | 1.15 |
| U9C U97C A116G | 0.44 |
| A68G A78G A129G | 0.06 |
| U39C A51G A125G | 0.72 |
| U43C A94G A117G | 2.65 |
| U72C A82G A95G | 0.12 |
| U100C U108C U122A | 0.01 |
| A68U U72C A89U | 0.3 |
| A4G A33G A56G U102C | 1.29 |
| A18G U70A U127C | 0.51 |
| A18G U43A A51G A56G A64U A69U | 1.02 |
| C35A A82G U102C A114G | 0.76 |
| A23U A60G C101A | 0.03 |
| A4G A11U A18G A111G A114G | 0.03 |
| U102C A118G U120C A129G | 0.29 |

| Variant | self-cleavage |
| --- | --- |
| U43C U49C U122A | 1.33 |
| A36G U37C U39A U102A | 0.87 |
| A22G A33G A69G | 0.8 |
| U19A A22G A67G | 1.1 |
| A5G A11G A92G U139C | 0.69 |
| A4G A22G A67G | 0.85 |
| A51U A56G A110G A135G | 0.18 |
| A36U A60G U103C A110G G136A | 0.1 |
| A11G A60G A78U | 0.37 |
| A89C A94G A126G U131C | 0.25 |
| U39C A52G U108C A135G | 0.02 |
| A18G U37C A118G U122C | 1.28 |
| U19A A52G A63G U139G | 1.1 |
| U12C C16A A92G | 0.71 |
| U2C U102A A116U | 0.17 |
| U37C A59G A66G A129G | 1.07 |
| U9C A96U U97C | 1.91 |
| A52G A78G A117G | 0.25 |
| U19G A59G A110G | 0.19 |
| A90C U102C A110U U131C | 1.39 |
| A51G U100C A118G | 1.43 |
| G14A A91G U124C U127C | 0.32 |
| A59G A94G A135G | 1.51 |
| U2A A78U A82G | 0.23 |

| Variant | self-cleavage |
| --- | --- |
| C16A A52G A63G A111G | 0.1 |
| G1U U19C A117G A118G | 0.7 |
| U19C A68G A125G | 0.53 |
| A78C U97C A117U | 0.07 |
| A13G A27G A64G A118G | 0.81 |
| U87A C112U U130C U133C | 0 |
| A11G A33G A78G A114G A126G U139C | 0.01 |
| A13G U26C A89G A96U | 0.79 |
| U43A A66U A86G U131C A140U | 0.78 |
| A62U U131C U139C | 1.06 |
| U39A U49C A92G | 0.99 |
| G28A A60G A95G | 2.22 |
| A62G U87G A90G A135U | 0.44 |
| A5G A23U A56G U87A U124A | 0.6 |
| U49C A89G A116U | 0.43 |
| U9A A94G U103C | 1.1 |
| A18G A51G A55G U72C C77A U103C | 0.27 |
| A59G U72C A90G | 0.29 |
| U2C A56G A59G A66G U70A A125G | 0.2 |
| A23U U39C U49C A82G A126U | 0.29 |
| A60G A90G U127A | 0.89 |
| A18G U38A A91U | 1.12 |
| C40A A56G U139C | 0.64 |
| A90G A92U A118U A126G | 0.26 |

| Variant | self-cleavage |
| --- | --- |
| A51U A89G U103C | 0.42 |
| A51U U122A U130G | 1.12 |
| U26A A55U A118U | 0.52 |
| A33C U49C A60G | 1.4 |
| U38C A91G U100A U122C | 0.32 |
| A11G A23G U87A C105U | 0.14 |
| A54G A78G U100C U103C A129G | 0.17 |
| A47U A118G U132C G137U | 0.71 |
| A22C U100A C113A | 0.03 |
| U72A A86G A95G | 0.41 |
| A22U A33U A78G | 0.37 |
| A27G U39G U70C U87C A89G U131C | 0.39 |
| A68G U103C A114U | 0.06 |
| A18U A51G A55U A89G A92G | 0.65 |
| U12C A59G A66G A94U | 0.69 |
| G15U A22G A59G U100C A110G A129U | 0.15 |
| A52G A126G A129U | 0.79 |
| A30G U43C A59U U102C A135G | 1.32 |
| U12C U37C A51G A125G | 0.27 |
| A23G A55G A92G U97C U131C | 1.2 |
| A51G C61U A62G U87A A95U A118G | 1.31 |
| A23U U39C A54G U100G | 1.25 |
| U39C A56G U57A A92G | 1.41 |
| A23G U37C U49C A62G A111G | 0.02 |

| Variant | self-cleavage |
| --- | --- |
| A23U A89G A94G | 1.08 |
| U2C A30U A54G | 0.08 |
| A55G A98U A134G | 1.37 |
| A27G U39C U72C A78U U97C | 0.09 |
| A52G A95G A117G | 2.29 |
| A4G A27U U72A A111G | 0 |
| A30G A59C G80A | 0.35 |
| A60G U120C U127C | 0.65 |
| U9C U12C A82U A118G | 0.15 |
| U3G A64G A114U | 0.12 |
| U12C A52G A67G | 1.54 |
| U108C U127C U132C | 0 |
| U19A U122C U139A | 0.8 |
| U12A U38A C45G A52G U70C | 1.15 |
| U87C A116G U131A | 0.19 |
| A13G A22G U87C U132A | 1.57 |
| A60G G119A U122A | 1.85 |
| U9G G44A A47U | 1.25 |
| U57C A63G U120C | 0.16 |
| U9A A23G U37C | 1.44 |
| A27G G79U U103C | 0.05 |
| G44A U108C U131C | 0 |
| U19C A63G U70C | 0.7 |
| U43C A68G A111G A126U U127C U130C | 0.01 |

| Variant | self-cleavage |
| --- | --- |
| A4G A52U A92G | 0.44 |
| U57A A67G C77U A94G U130C | 1.37 |
| U70A U87C U100C | 2.1 |
| A33G A47G A51C A117G U130C | 0.15 |
| A47G U120C A135U | 0.78 |
| U12C A51G A66G | 1.16 |
| U72A U87C A126G | 0.19 |
| G14A A30U A52G A96G A98G | 0.12 |
| A22G A56G U72A | 0.14 |
| C6U A11G A52G U108C | 0.15 |
| A18U U43C A51U A55G A62G | 1.2 |
| U3C A22G U39A | 1.37 |
| A47G A55G A66G | 0.47 |
| U37G U38C A125G A134G | 0.86 |
| A86G U103C U132C | 1.04 |
| U9C A22G A110G A111G G137A | 0.05 |
| A24C A64G A91G A135G | 2.04 |
| A30G A117U U120A | 1 |
| A4G G8A U19C A60G | 1.05 |
| U19A U37C A47U A55G | 1.32 |
| G7A A91G A94G U102A | 0.57 |
| U19G A22G A30G A82G | 0.92 |
| A13G A94G A118G | 0.63 |
